{"source": "the supplement of paper PMC8728848", "binders": {"B1": {"name": "Thrombomodulin (Mus musculus) (protein)", "chain": "ALAKLQPTGSQCVEHECFALFQGPATFLDASQACQRLQGHLMTVRSSVAADVISLLLSQSSMDLGPWIGLQLPQGCDDPVHLGPLRGFQWVTGDNHTSYSRWARPNDQTAPLCGPLCVTVSTATEAAPGEPAWEEKPCETETQGFLCEFYFTASC"}}, "assay_in_all_cases": "glycan array binding signal (z-score within array); higher = stronger binding", "settings_in_all_cases": "glycan notation: IUPAC condensed, linker removed", "key": {"Gal(b1-4)Glc": {"molecular_target": "Gal(b1-4)Glc", "in_short": "(§1)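 The binding signal is a Z-score computed within each array. Data were drawn from 3228 arrays in the Consortium for Functional Glycomics database, restricted to those with a known protein sequence. Scores were averaged over arrays of the same protein sequence at different concentrations or buffers, and over linkers, and negative values can be taken as non-binding.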"}, "Gal(b1-4)Glc6S": {"molecular_target": "Gal(b1-4)Glc6S", "in_short": "as §1"}, "Gal(b1-4)GlcNAc": {"molecular_target": "Gal(b1-4)GlcNAc", "in_short": "as §1"}, "[1]": {"molecular_target": "Gal(b1-4)GlcNAc(a1-6)Gal(b1-4)GlcNAc", "in_short": "as §1"}, "Gal(b1-4)GlcNAc(b1-2)Man": {"molecular_target": "Gal(b1-4)GlcNAc(b1-2)Man", "in_short": "as §1"}, "[2]": {"molecular_target": "Gal(b1-4)GlcNAc(b1-2)Man(a1-3)Man(b1-4)GlcNAc(b1-4)GlcNAc", "in_short": "as §1"}, "[3]": {"molecular_target": "Gal(b1-4)GlcNAc(b1-2)Man(a1-3)[Gal(b1-4)GlcNAc(b1-2)Man(a1-6)]Man(b1-4)GlcNAc(b1-4)GlcNAc", "in_short": "as §1"}, "[4]": {"molecular_target": "Gal(b1-4)GlcNAc(b1-2)Man(a1-3)[Gal(b1-4)GlcNAc(b1-2)Man(a1-6)]Man(b1-4)GlcNAc(b1-4)[Fuc(a1-6)]GlcNAc", "in_short": "as §1"}, "[5]": {"molecular_target": "Gal(b1-4)GlcNAc(b1-2)Man(a1-3)[Gal(b1-4)GlcNAc(b1-2)Man(a1-6)][Gal(b1-4)GlcNAc(b1-4)]Man(b1-4)GlcNAc(b1-4)[Fuc(a1-6)]GlcNAc", "in_short": "as §1"}, "[6]": {"molecular_target": "Gal(b1-4)GlcNAc(b1-2)Man(a1-3)[Gal(b1-4)GlcNAc(b1-2)Man(a1-6)][GlcNAc(b1-4)]Man(b1-4)GlcNAc(b1-4)[Fuc(a1-6)]GlcNAc", "in_short": "as §1"}, "[7]": {"molecular_target": "Gal(b1-4)GlcNAc(b1-2)Man(a1-3)[GlcNAc(b1-2)Man(a1-6)]Man(b1-4)GlcNAc(b1-4)GlcNAc", "in_short": "as §1"}, "[8]": {"molecular_target": "Gal(b1-4)GlcNAc(b1-2)Man(a1-3)[GlcNAc(b1-4)][Gal(b1-4)GlcNAc(b1-2)Man(a1-6)]Man(b1-4)GlcNAc(b1-4)GlcNAc", "in_short": "as §1"}, "[9]": {"molecular_target": "Gal(b1-4)GlcNAc(b1-2)Man(a1-3)[Man(a1-6)]Man(b1-4)GlcNAc(b1-4)GlcNAc", "in_short": "as §1"}, "[10]": {"molecular_target": "Gal(b1-4)GlcNAc(b1-2)Man(a1-6)Man(b1-4)GlcNAc(b1-4)GlcNAc", "in_short": "as §1"}, "[11]": {"molecular_target": "Gal(b1-4)GlcNAc(b1-2)Man(a1-6)[GlcNAc(b1-2)Man(a1-3)]Man(b1-4)GlcNAc(b1-4)GlcNAc", "in_short": "as §1"}, "[12]": {"molecular_target": "Gal(b1-4)GlcNAc(b1-2)Man(a1-6)[Man(a1-3)]Man(b1-4)GlcNAc(b1-4)GlcNAc", "in_short": "as §1"}, "[13]": {"molecular_target": "Gal(b1-4)GlcNAc(b1-2)[Gal(b1-4)GlcNAc(b1-4)]Man(a1-3)[Gal(b1-4)GlcNAc(b1-2)Man(a1-6)]Man(b1-4)GlcNAc(b1-4)GlcNAc", "in_short": "as §1"}, "[14]": {"molecular_target": "Gal(b1-4)GlcNAc(b1-2)[Gal(b1-4)GlcNAc(b1-4)]Man(a1-3)[Gal(b1-4)GlcNAc(b1-2)[Gal(b1-4)GlcNAc(b1-6)]Man(a1-6)]Man(b1-4)GlcNAc(b1-4)GlcNAc", "in_short": "as §1"}, "[15]": {"molecular_target": "Gal(b1-4)GlcNAc(b1-2)[Gal(b1-4)GlcNAc(b1-4)]Man(a1-3)[GlcNAc(b1-4)][Gal(b1-4)GlcNAc(b1-2)Man(a1-6)]Man(b1-4)GlcNAc(b1-4)GlcNAc", "in_short": "as §1"}, "[16]": {"molecular_target": "Gal(b1-4)GlcNAc(b1-2)[Gal(b1-4)GlcNAc(b1-4)]Man(a1-3)[GlcNAc(b1-4)][Gal(b1-4)GlcNAc(b1-2)[Gal(b1-4)GlcNAc(b1-6)]Man(a1-6)]Man(b1-4)GlcNAc(b1-4)GlcNAc", "in_short": "as §1"}, "[17]": {"molecular_target": "Gal(b1-4)GlcNAc(b1-2)[Gal(b1-4)GlcNAc(b1-6)]Man(a1-6)[Gal(b1-4)GlcNAc(b1-2)Man(a1-3)]Man(b1-4)GlcNAc(b1-4)GlcNAc", "in_short": "as §1"}, "[18]": {"molecular_target": "Gal(b1-4)GlcNAc(b1-2)[Gal(b1-4)GlcNAc(b1-6)]Man(a1-6)[Gal(b1-4)GlcNAc(b1-2)Man(a1-3)]Man(b1-4)GlcNAc(b1-4)[Fuc(a1-6)]GlcNAc", "in_short": "as §1"}}, "note": "This is one part of the list."}
{"binder": "B1", "values": [{"measurement": "glycan array binding signal (z-score)", "setting": "Gal(b1-4)Glc", "value": -0.248}, {"measurement": "glycan array binding signal (z-score)", "setting": "Gal(b1-4)Glc6S", "value": -0.068}, {"measurement": "glycan array binding signal (z-score)", "setting": "Gal(b1-4)GlcNAc", "value": -0.162}, {"measurement": "glycan array binding signal (z-score)", "setting": "[1]", "value": -0.047}, {"measurement": "glycan array binding signal (z-score)", "setting": "Gal(b1-4)GlcNAc(b1-2)Man", "value": 0.259}, {"measurement": "glycan array binding signal (z-score)", "setting": "[2]", "value": -0.092}, {"measurement": "glycan array binding signal (z-score)", "setting": "[3]", "value": -0.235}, {"measurement": "glycan array binding signal (z-score)", "setting": "[4]", "value": -0.046}, {"measurement": "glycan array binding signal (z-score)", "setting": "[5]", "value": -0.252}, {"measurement": "glycan array binding signal (z-score)", "setting": "[6]", "value": -0.343}, {"measurement": "glycan array binding signal (z-score)", "setting": "[7]", "value": -0.463}, {"measurement": "glycan array binding signal (z-score)", "setting": "[8]", "value": -0.271}, {"measurement": "glycan array binding signal (z-score)", "setting": "[9]", "value": 0.067}, {"measurement": "glycan array binding signal (z-score)", "setting": "[10]", "value": -0.282}, {"measurement": "glycan array binding signal (z-score)", "setting": "[11]", "value": -0.233}, {"measurement": "glycan array binding signal (z-score)", "setting": "[12]", "value": 0.088}, {"measurement": "glycan array binding signal (z-score)", "setting": "[13]", "value": -0.077}, {"measurement": "glycan array binding signal (z-score)", "setting": "[14]", "value": -0.205}, {"measurement": "glycan array binding signal (z-score)", "setting": "[15]", "value": -0.089}, {"measurement": "glycan array binding signal (z-score)", "setting": "[16]", "value": -0.075}, {"measurement": "glycan array binding signal (z-score)", "setting": "[17]", "value": -0.477}, {"measurement": "glycan array binding signal (z-score)", "setting": "[18]", "value": 0.056}]}
